Source: PubChem BioAssay AID1745853 (National Center for Advancing Translational Sciences (NCATS), 2022)
The list shows a part of the results. Shown are side measurements of this screen, not its main read-out; they come without a call.

Tests used:
Experiment in all cases: Primary Screen for Target Class Profiling of Small Molecule Inhibitors of Methyltransferases
[1] = target: Glycine N-methyltransferase (Homo sapiens) (UniProt Q14749); details: purified enzyme, MTase-Glo SAH luminescence; measured here: GNMT inhibition; at 40 µM; stronger effect = lower value
Method in brief: (§1)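 Each enzyme was reacted with SAM and its substrate, with compounds tested once at 40 uM; SAH formed was read by MTase-Glo luminescence.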

[2] = target: Guanidinoacetate N-methyltransferase (Homo sapiens) (UniProt Q14353); details: purified enzyme, MTase-Glo SAH luminescence; measured here: GAMT inhibition; at 40 µM; stronger effect = lower value
Method in brief: as §1

[3] = target: Histamine N-methyltransferase (Homo sapiens) (UniProt P50135); details: purified enzyme, MTase-Glo SAH luminescence; measured here: HNMT inhibition; at 40 µM; stronger effect = lower value
Method in brief: as §1

[4] = target: Nicotinamide N-methyltransferase (Homo sapiens) (UniProt P40261); details: purified enzyme, MTase-Glo SAH luminescence; measured here: NNMT inhibition; at 40 µM; stronger effect = lower value
Method in brief: as §1

[5] = target: Phenylethanolamine N-methyltransferase (Homo sapiens) (UniProt P11086); details: purified enzyme, MTase-Glo SAH luminescence; measured here: PNMT inhibition; at 40 µM; stronger effect = lower value
Method in brief: as §1
On the % scale 0 is the no-effect control and ±100 the full control effect.

Row | Compound | activity change, negative = inhibition [1] | activity change, negative = inhibition [2] | activity change, negative = inhibition [3] | activity change, negative = inhibition [4] | activity change, negative = inhibition [5]
1 | CC1(C(=O)O)CCCC2(C)C3CCC4CC3(CCC12)CC4=O (stereo not given) | 0.028% | 2.27% | 7.67% | -11.9% | -1.83%
2 | CC(=O)O[C@H]1CC(C)(C)CC2[C@]13CO[C@@]21CCC2[C@@]4(C)CC[C@H](O[C@@H]5OC[C@H](O[C@@H]6O[C@H](CO)[C@@H](O)[C@H](O)[C@H]6O[C@@H]6OC[C@@H](O[C@@H]7O[C@H](CO)[C@@H](O)[C@H](O)[C@H]7O)[C@H](O)[C@H]6O)[C@H](O)[C@H]5O[C@@H]5O[C@H](CO)[C@@H](O)[C@H](O)[C@H]5O)[C@@](C)(CO)C4CC[C@@]2(C)[C@]1(C)C[C@H]3O (stereo not given in full) | 4.48% | 4.8% | 14.7% | -6.52% | 10.7%
3 | CC(C)Cn1c(=O)c2ccccc2n2c(SCc3ccccc3Cl)nnc12 | -4.68% | 1.38% | 11% | -17.4% | 6.3%
4 | O=C(Cn1c(=O)oc2cc(S(=O)(=O)N3CCCC3)ccc21)NCCc1ccccc1 | -4.54% | 1.03% | -7.36% | 4.99% | -15.3%
5 | O=C(CCCc1nnc2n3nc(-c4ccccc4)nc3c3ccccc3n12)N1CCN(c2ccccn2)CC1 | -11.3% | 0.125% | -10.2% | -1.84% | -12%
6 | CCOc1ccc(N2C(=O)c3cc(-c4cccs4)nn3CC2(C)C(=O)NC2CCCCC2)cc1 (stereo not given) | -0.75% | 3.21% | 0.545% | 2.54% | 0.221%
7 | COc1cc(OC)cc(N2C(=O)c3ccc(-c4ccco4)n3CC2(C)C(=O)NC2CCCC2)c1 (stereo not given) | 0.409% | 0.258% | 7.42% | 9.19% | 1.25%
8 | COC(=O)C1=CN(CC(=O)NCCCc2ccccc2)S(=O)(=O)N=C1C | -4.94% | -3.98% | -2.69% | -5.8% | -15.9%
9 | Cc1ccc2c(C(=O)NCc3ccc(C(F)(F)F)cc3)cc(NC(=O)C(C)C)cc2n1 | -2.81% | -0.007% | -1.14% | -10.8% | 13.2%
10 | N#C[C@@H]1C[C@H](F)CN1C(=O)CNC1[C@H]2CN(C(=O)c3ccc(F)cc3)C[C@@H]12 (stereo not given in full) | 4.22% | 4.43% | 1.69% | -8.33% | -1.79%
11 | Cc1ccccc1CN1C(=O)c2ccc(-c3ccco3)n2CC1(C)C(=O)NC1CCC(C)CC1 (stereo not given) | -0.966% | 0% | 4.05% | -4.67% | -0.046%
12 | CC(C)C[C@@H](N)C(=O)N[C@H]1C(=O)N[C@@H](CC(N)=O)C(=O)N[C@H]2C(=O)N[C@H]3C(=O)N[C@H](C(=O)N[C@H](C(=O)O)c4cc(O)cc(O)c4-c4cc3ccc4O)[C@H](O)c3ccc(c(Cl)c3)Oc3cc2cc(c3O[C@@H]2O[C@H](CO)[C@@H](O)[C@H](O)[C@H]2O[C@H]2C[C@](C)(N)[C@H](O)[C@H](C)O2)Oc2ccc(cc2Cl)[C@H]1O | 2.14% | -1.76% | 10.2% | -6.97% | 4.41%
13 | Cn1cc(CNC(=O)c2ccc(S(=O)(=O)N[C@@H]3CCNC3)cc2)cn1 | -2.44% | -9.54% | -2.47% | -7.65% | 0.711%
14 | CC1=C(C(=O)Nc2ccccc2)C(c2cc(C)ccc2C)N2C(CC(=O)N3CCCC3)=CSC2=N1 (stereo not given) | -11.9% | -14.4% | -11.3% | -13.5% | -11.8%
15 | CS(=O)(=O)N1CCC(C2CCN(Cc3ccc4c(c3)CCO4)C2)CC1 (stereo not given) | -6.95% | -3.89% | -5.12% | -14.3% | -24.3%
16 | CC1(C(=O)NC2CCCCCCC2)Cc2ccccc2C(=O)N1CC1CCCO1 (stereo not given) | -5.21% | 0.452% | -2.07% | -0.484% | -7%
17 | O=c1c2ccccc2n2c(-c3cc(Br)cs3)nnc2n1CCc1ccccc1 | 0.421% | 0% | 5.89% | 5.87% | -1.94%
